# Laboratory results: PubChem BioAssay AID1745853 (National Center for Advancing Translational Sciences (NCATS), 2022)
# The list shows a part of the results. Shown are side measurements of this screen, not its main read-out; they come without a call.
# What was measured:
# Assay in all cases: Primary Screen for Target Class Profiling of Small Molecule Inhibitors of Methyltransferases
# [1] = molecular target: Glycine N-methyltransferase (Homo sapiens) (UniProt Q14749); conditions: purified enzyme, MTase-Glo SAH luminescence; measured here: GNMT inhibition; at 40 µM; stronger effect = lower value
# Outline: (§1)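 Each enzyme was reacted with SAM and its substrate, with compounds tested once at 40 uM; SAH formed was read by MTase-Glo luminescence.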
# [2] = molecular target: Guanidinoacetate N-methyltransferase (Homo sapiens) (UniProt Q14353); conditions: purified enzyme, MTase-Glo SAH luminescence; measured here: GAMT inhibition; at 40 µM; stronger effect = lower value
# Outline: as §1
# [3] = molecular target: Histamine N-methyltransferase (Homo sapiens) (UniProt P50135); conditions: purified enzyme, MTase-Glo SAH luminescence; measured here: HNMT inhibition; at 40 µM; stronger effect = lower value
# Outline: as §1
# [4] = molecular target: Nicotinamide N-methyltransferase (Homo sapiens) (UniProt P40261); conditions: purified enzyme, MTase-Glo SAH luminescence; measured here: NNMT inhibition; at 40 µM; stronger effect = lower value
# Outline: as §1
# [5] = molecular target: Phenylethanolamine N-methyltransferase (Homo sapiens) (UniProt P11086); conditions: purified enzyme, MTase-Glo SAH luminescence; measured here: PNMT inhibition; at 40 µM; stronger effect = lower value
# Outline: as §1
# On the % scale 0 is the no-effect control and ±100 the full control effect.
Compound,"activity change, negative = inhibition [1]","activity change, negative = inhibition [2]","activity change, negative = inhibition [3]","activity change, negative = inhibition [4]","activity change, negative = inhibition [5]"
Oc1ccc(-c2cnc3ccc(NCc4ccco4)nn23)cc1,-44.3%,-5.62%,-31.3%,-26.1%,-7.15%
COC(=O)c1ncn2c1C(=O)N(Cc1cccc(C)c1)C(C)(C(=O)NC1CCCCCC1)C2 (stereo not given),-10.4%,2.66%,0.588%,2.63%,-1.51%
O=S(=O)(c1cccc(F)c1)N1CC[C@@H]2COCCN(Cc3ccccc3)[C@@H]2C1,-3.88%,3%,-2.76%,-5.26%,7.97%
C=C1C(=O)OC[C@@H]1C/C=C(\C)CC1CC(C)C(=O)O1 (stereo not given in full),-4.02%,-4.99%,1.98%,-15.6%,1.69%
COc1ccc(-n2nc3n(c2=O)CCN(C(=O)c2ccccc2F)C3)cc1,-13.5%,-2.04%,-5.59%,-11.3%,5.04%
CC1=CC(=O)CC(C)(C)C1CCC(C)O[C@@H]1O[C@H](CO[C@@H]2OC[C@@H](O)[C@H](O)[C@H]2O)[C@@H](O)[C@H](O)[C@H]1O (stereo not given in full),0%,-5.08%,0.04%,-17.3%,2.08%
CCCCN1C(=O)c2cc(C(=O)Nc3ccccc3OC)nn2CC1(C)C(=O)NC1CCCC1 (stereo not given),1.01%,2.67%,-3.47%,-3.87%,-1.4%
O=C(Nc1ccc(F)c(Cl)c1)N1CCn2cccc2C1Cc1ccccc1 (stereo not given),-13.3%,3.14%,-5.96%,-10.4%,-14%
CC(=O)OCC1=C(C(=O)O)N2C(=O)[C@@H](NC(=O)Cc3cccs3)[C@H]2SC1,-8.56%,6.38%,3.34%,-26.5%,5.23%
O=C(NCc1nnc2cc(-c3nc(C4CC4)no3)ccn12)C1(c2ccccc2)CC1,0.622%,-3.07%,0.716%,-2.89%,2.08%
COc1ccc(N2C(=O)c3cc(-c4ccccc4)nn3CC2(C)C(=O)NCc2ccccc2OC)cc1 (stereo not given),-2.72%,-2.91%,-3.17%,-5.01%,-3.52%
Cc1ccc(C)c(N2CCN(S(=O)(=O)c3cc4c(cc3Cl)n(C)c(=O)n4C)CC2)c1,3.82%,3.98%,0.115%,-0.059%,0.834%
O=C1[C@@H]2[C@H]3CC[C@H](C3)[C@@H]2C(=O)N1CCCCN1CCN(c2ncccn2)CC1,4.12%,3.97%,12.1%,-6.82%,4.68%
CCN1C(=O)c2cc(C(=O)NCCCc3ccccc3)nn2CC1(C)C(=O)NC1CCCC1 (stereo not given),2.68%,4.66%,-5.37%,-0.173%,1.68%
